Screen size: about 420,000 compounds; about 64,000 (15%) were called active. This list was built around the results that the source calls inconclusive (neither active nor inactive); the mix of calls is not that of the screen. Calls follow the shape of the dose curve; as a rule, active = well fitted inhibition curve with a large enough effect; inconclusive = small, poorly fitted or top-dose-only effect; inactive = flat fitted curve, though single readings scatter. Potencies of inconclusive entries are left out as doubtful fits.
Experiment: qHTS for Inhibitors of human tyrosyl-DNA phosphodiesterase 1 (TDP1): qHTS in cells in absence of CPT; also: nearly all actives have a fitted effect of over 55% in size
Conditions: DT40 Tdp1-/- hTDP1 cells, no CPT, ATP luminescence, 48 h; activity change, negative = growth inhibition: at 46.2 µM (top of the series)
In short: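 Camptothecin absent (DMSO only). Human TDP1-complemented DT40 knockout cells, 400 cells/well, 37 °C for minimum 48 hr; ATP measured via CellTiter-Glo, 30 min dark incubation, luminescence.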
With `O=C1SCCc2c1n(Cc1ccccc1)c1ccccc21` the Potency was inconclusive [inhibitor, partial curve, poor fit]. For `CC(=O)Nc1ccc2c(c1)C(N1CC3CCC(CC3)C1)c1ccccc1-2` (stereo not drawn), the “activity change, negative = growth inhibition” value was inactive: -21.2%. With `C(=N\Nc1nc(N2CCCC2)nc(N2CCCC2)n1)/c1ccncc1` the “activity change, negative = growth inhibition” value was inactive: -19%. For `CCOC(=O)[C@H]1[C@H]2COc3ccc(C)cc3[C@@H]2N2C(=O)[C@@H](CO)NC(=O)[C@@]12C`, the “activity change, negative = growth inhibition” value was inactive: -21.3%. For `CCC1(C2CCN(C(=O)c3cc(F)ccc3F)CC2)NC(=O)N(CCc2scnc2C)C1=O` (stereo not drawn), the “activity change, negative = growth inhibition” value was inactive: -6.54%. With `CCn1nnc2sc3c(c2c1=O)CCC(C)C3` (stereo not drawn) the activity change, negative = growth inhibition was inconclusive: -32.2% [inhibitor]. With `CCOC(=O)Cc1csc(NC(=O)CN2CCOCC2)n1` the “activity change, negative = growth inhibition” value was inactive: -5.98%. For `COc1cc(C)ccc1OCCSc1nc2ccc(NC(=O)c3ccccc3F)cc2s1`, the “activity change, negative = growth inhibition” value was inactive: -18.2%. In the case of `COc1cc(Cl)cc(C(=O)O)c1OCC(=O)O`, the activity change, negative = growth inhibition is reported as inconclusive: -32.7% [inhibitor]. In the case of `Fc1ccc(NCc2ccccc2-c2nnc(-c3ccccc3Cl)o2)cc1Cl`, the Potency is reported as inconclusive [inhibitor, single point]. For `Cc1ccccc1CN1C(=O)C(C)S/C1=N/N=C/c1ccco1` (stereo not drawn), the Potency was inconclusive [inhibitor, single point]. With `O=C(Nc1ccccc1)N1CCC2(CC1)CCN(C(=O)c1csnn1)CC2` the “activity change, negative = growth inhibition” value was inactive: -9.15%. With `CCOC(=O)N1CCN(C(=O)c2ccc3c(=O)n(CCOC)c(=O)[nH]c3c2)CC1` the “activity change, negative = growth inhibition” value was inactive: 6.68%. For `CC(=O)N1CCN(c2ccc(NC(=O)c3ccccc3)cc2)CC1`, the “activity change, negative = growth inhibition” value was inactive: -7.04%. In the case of `CCCCn1c(N)c(N(CCOC)C(=O)COC(=O)CCOc2ccc(C)cc2)c(=O)[nH]c1=O`, the “activity change, negative = growth inhibition” value is reported as inactive: -0.889%. In the case of `O=C(Nc1nsc(-c2ccccc2)n1)c1cccs1`, the Potency is reported as inconclusive [inhibitor, partial curve]. For `COc1ccc2cc3cc(C(=O)NCCN4CCc5ccccc5C4)oc3nc2c1`, the Potency was inconclusive [inhibitor, single point]. In the case of `COc1ccc(N2CCN(C(=O)Cn3cnc4sc(C)c(S(=O)(=O)N5CCOCC5)c4c3=O)CC2)cc1`, the Potency is reported as active: 18.4 µM. With `COc1ccc(S(=O)(=O)N(CCO)c2ccccc2CN(C)C/C=C/c2ccc(Cl)cc2)cc1` the Potency was active: 14.6 µM. With `Cc1noc(C)c1COc1ccccc1C(=O)NC1CCC(C)CC1` (stereo not drawn) the “activity change, negative = growth inhibition” value was inactive: -3.04%. With `Cc1ccccc1C(=O)Nc1cccc(NC(=O)c2ccc(F)cc2)c1` the Potency was inconclusive [inhibitor, single point]. For `CCCC(=O)NC(c1ccco1)c1c(O)ccc2ccccc12` (stereo not drawn), the Potency was inconclusive [inhibitor, single point]. In the case of `Cc1ccc(-n2nc3c([n+]2[O-])CCc2c-3no[n+]2[O-])cc1`, the Potency is reported as active: 16.4 µM. In the case of `CCOCCOc1cc(NCc2ccccc2)c2ncn(C(C)C)c2c1`, the Potency is reported as inconclusive [inhibitor, single point]. With `CCCCn1nc2cc(C(=O)NCc3ccco3)ccc2c1OCC` the “activity change, negative = growth inhibition” value was inactive: -7.86%. For `CC12COC3(C(=O)Nc4nccs4)CC1CCC32C` (stereo not drawn), the Potency was inconclusive [inhibitor, single point]. In the case of `CCCn1nnnc1NCc1ccc(SC)cc1`, the “activity change, negative = growth inhibition” value is reported as inactive: -3.78%. In the case of `CCc1ccc(-c2cc(C)no2)cc1S(=O)(=O)NCc1ccc(OC)cc1`, the Potency is reported as active: 1.03 µM. For `O=C(c1cccs1)N1CCN=C1SCc1cccc(F)c1`, the Potency was inconclusive [inhibitor, single point]. For `C[C@@H]1CCCCO[C@@H](CN(C)S(=O)(=O)c2ccccc2)[C@@H](C)CN([C@H](C)CO)C(=O)c2cc(N(C)C)ccc2O1`, the Potency was inconclusive [inhibitor, single point]. In the case of `Cc1cc(C)c(C(=O)N2CCCC(N3CCN(c4ccc(F)cc4)CC3)C2)o1` (stereo not drawn), the Potency is reported as active: 16.4 µM. With `CCOc1ccc(C(c2c(O)cc(C)n(CCOC)c2=O)N2CCN(c3ccc(F)cc3)CC2)cc1` (stereo not drawn) the Potency was inconclusive [inhibitor, single point]. For `CC(=O)OCC1(C)CN(c2ccccc2)N(C(=O)c2ccc(C(C)(C)C)cc2)C1=O` (stereo not drawn), the Potency was inconclusive [inhibitor, single point]. For `COc1ccc(-c2ccc(/C=N/NC(=O)c3cccnc3)o2)c([N+](=O)[O-])c1`, the Potency was active: 16.4 µM. For `OC(C#CCCN1CCCCC1)(c1ccccc1)C1CCCCC1` (stereo not drawn), the Potency was inconclusive [inhibitor, single point]. In the case of `CC(O)CNc1nc2ccccc2n1CC(=O)NCCc1ccc(Cl)cc1` (stereo not drawn), the Potency is reported as inconclusive [inhibitor, single point]. With `O=C(COC(=O)C1CC2C=CC1C2)Nc1ccccc1[N+](=O)[O-]` (stereo not drawn) the Potency was inconclusive [inhibitor, single point]. With `O=C(CCC1CCCN(C(=O)C2(c3ccccc3)CC2)C1)N1CCN(c2ccccn2)CC1` (stereo not drawn) the Potency was inconclusive [inhibitor, single point]. With `NNC(=O)/C(=N/Nc1ccccc1)S(=O)(=O)c1ccc(Cl)cc1` the Potency was inconclusive [inhibitor, single point]. For `O=C(NC(=S)N1CCc2ccccc21)c1ccccc1`, the Potency was active: 18.4 µM. In the case of `CCOc1ccc2nc(NC(=O)CN3CCC(n4nnc5cc(C(F)(F)F)ccc54)CC3)sc2c1`, the Potency is reported as active: 23.1 µM. With `CC(C)CC(=O)C(=O)O` the Potency was “inactive”. For `O=S(=O)(c1cccc(NC(=S)Nc2ccc(Br)cc2Cl)c1)N1CCOCC1`, the Potency was active: 29.1 µM. For `Cc1ccc(C(=O)OCC(=O)Nc2cccc(S(=O)(=O)NC3=NCCCCC3)c2)c(C)c1`, the Potency was inconclusive [inhibitor, single point]. In the case of `CCN(CC)C(=O)Cn1c(=O)n(CCCCCC(=O)NCc2ccc(C)cc2)c(=O)c2sccc21`, the “activity change, negative = growth inhibition” value is reported as inactive: -25.4%. With `Cc1cccc(NC(=O)CSc2nc3ccccc3c(=O)n2C)c1` the Potency was inconclusive [inhibitor, single point]. For `CC(=O)N1CCc2c(sc3c2c(=O)n(-c2cc(Cl)ccc2C)c(=O)n3C)C1`, the “activity change, negative = growth inhibition” value was inactive: -9.02%. For `O=C(CN1C(=O)NC2(CCc3ccccc32)C1=O)c1ccc2c(c1)OCCO2` (stereo not drawn), the Potency was inconclusive [inhibitor, single point].

— PubChem BioAssay AID686978 (National Center for Advancing Translational Sciences (NCATS), 2013)
% is scaled to controls: 0 for no effect and ±100 for the full control effect; potency is read from the fitted curve at half-maximal effect; tags tell the direction and shape of the fitted curve.
